# Reference: the supplement of paper PMC12217912
# The list shows a part of the results. The full chains were built here from the parent and the listed change. Inactive controls read about 0.05.
# B1: TEV protease; numbered along this chain (parent)
# chain: MGESLFKGPRDYNPISSSICHLTNESDGHTTSLYGIGFGPFIITNKHLFRRNNGTLVVQSLHGVFKVKDTTTLQQHLVDGRDMIIIRMPKDFPPFPQKLKFREPQREERICLVTTNFQTKSMSSMVSDTSCTFPSGDGIFWKHWIQTKDGQCGSPLVSTRDGFIVGIHSASNFTNTNNYFTSVPKNFMELLTNQEAQQWVSGWRLNADSVLWGGHKVFMVKPEEPFQPVKEATQL
# Variants of: B1
# Assay: raw area under fraction-flipped curve 0-4 h after induction (AUC4h, not background-subtracted), DNA-recorder readout of cleavage of the substrate (dimensionless); higher = more cleavage of the substrate by the protease variant
# Settings: temperature: 34 °C; time window: 0-4 h after rhamnose induction
# Description: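 In vivo DNA recorder in E. coli TOP10(DE3) ΔrhaA at 34 °C. Each TEVp single-site mutant (parent TEVp 0) is paired with a single-site variant of the 7-mer TEVs (canonical ENLYFQ|S). The substrate sits between flexible linkers in a Bxb1-sfGFP-TEVs-SsrA fusion, so cleavage stabilises Bxb1 and speeds flipping of a recombination array, read by NGS. The value is the raw area under the fraction-flipped curve over 0-4 h after rhamnose induction (AUC4h), with ≥20 reads per time point. It is not background-subtracted; inactive controls average about 0.047.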
# 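Also: Bxb1 expression induced with 0.2% (w/v) L-rhamnose at OD600 near 0.5, cultures sampled hourly, flipped fraction per protease–substrate barcode pair counted by paired-end Illumina sequencing.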
Variant,area with substrate FNLYFQS,area with substrate HNLYFQS,area with substrate PNLYFQS,area with substrate TNLYFQS,area with substrate WNLYFQS,area with substrate YNLYFQS,area with substrate KNLYFQS,area with substrate MNLYFQS,area with substrate NNLYFQS,area with substrate GNLYFQS
V57Q,0.0675,0.0663,0.0634,0.0778,0.048,0.0662,–,–,–,–
G2Y,0.081,–,0.127,–,–,0.0766,0.0713,0.0647,0.0801,–
G2K,0.0672,0.0833,0.0791,0.0641,–,0.0658,–,–,0.0649,0.0781
G2I,0.0648,0.0768,–,–,0.0584,–,0.0727,0.0672,–,0.111
I84N,0.0621,0.0956,0.0886,0.0509,–,–,0.0708,–,–,–
I84H,0.0526,–,0.0595,0.0581,0.0392,0.0501,0.0508,0.0483,0.0529,0.0647
R87T,0.0559,0.0655,0.0678,–,0.0579,–,–,0.0413,0.0489,0.0543
R51N,0.0495,–,–,0.0684,–,–,–,0.0559,–,–
Q97L,0.0556,0.0696,–,–,0.06,–,–,0.0747,–,–
Q97W,0.0675,0.0476,–,–,0.0556,–,–,–,–,–
Q97C,0.0767,–,–,–,–,–,–,–,0.0874,–
I110F,0.0479,0.0518,0.0516,0.042,0.0477,–,0.0765,0.0494,0.0587,0.0538
P93D,0.0563,0.102,–,0.0755,0.0609,–,–,0.0719,0.0649,0.0666
G8L,0.0576,–,–,–,0.054,–,–,–,–,–
T147V,0.0548,0.054,–,–,–,0.0869,–,–,–,–
N116V,0.0644,–,–,–,0.0582,–,0.0474,0.0688,0.0549,–
N116F,0.0798,–,–,–,0.0531,0.0575,–,0.0672,0.078,0.0634
G35T,0.0451,–,0.0451,0.0425,0.0717,–,–,–,–,–
Y34H,0.0663,0.0744,–,0.0697,0.059,–,0.0773,0.0583,–,–
T114L,0.0705,0.0582,0.0578,0.107,0.0586,0.068,0.0596,–,–,–
L61F,0.0621,–,–,–,–,0.0623,–,–,–,–
F65P,0.0481,0.0347,0.0725,–,0.0496,0.0398,–,0.0258,0.0377,–
F65I,0.056,0.064,0.0139,0.0626,0.0528,0.0634,0.0519,–,–,–

# Same assay, conditions: temperature: 34 °C; time window: 0-4 h after rhamnose induction
Variant,area with substrate QNLYFQS,area with substrate RNLYFQS,area with substrate SNLYFQS,area with substrate VNLYFQS,area with substrate LNLYFQS,area with substrate INLYFQS
G2K,0.0699,–,–,–,–,–
G2I,0.055,0.0593,0.056,0.0909,–,–
I84N,–,–,0.0588,–,–,–
I84H,–,–,–,0.05,0.0573,–
R87T,–,–,–,–,–,0.0758
R51N,–,–,–,–,0.0802,0.07
Q97L,–,–,0.0655,–,–,0.0633
Q97W,–,–,–,–,0.0713,–
I110F,–,–,–,0.0655,0.0565,0.0634
P93D,–,–,0.0595,–,0.0662,–
G8L,–,–,–,0.0612,–,–
T147V,–,–,0.0523,–,0.07,0.105
N116V,–,–,–,–,–,0.0477
N116F,–,0.0541,–,–,–,0.0609
Y34H,–,0.063,0.0628,0.0606,0.0521,0.0835
T114L,–,–,0.0682,–,0.0723,0.0836
F65P,–,–,0.042,–,–,–
F65I,–,0.0733,–,–,0.0537,–
